Data from paper PMC11387677 (The Journal of Biological Chemistry, 2024).

Molecular target: T1, NEIL1 wild-type (UniProt Q96FI4)
T1 construct: NEIL1 DNA glycosylase, wild-type gene in pET22b; called 44 kDa NEIL1; Expression vectors were a gift (Hegde and Mitra); also called WT NEIL1
Test: ITC; RPA or RPA domain titrated with NEIL1; Microcal VP, 25 °C, 50 mM HEPES pH 7.5, 150 mM NaCl, 10% glycerol, 0.5 mM TCEP; 50 uM in the cell, 150 uM in the syringe
Conditions: both partners purified

- Kd: 240 nM
B1: RPA32C (domain or fragment)
chain: not shown
notes: C-terminal winged helix protein recruitment domain of the RPA32 subunit of replication protein A; 15N-enriched for the NMR experiments; also called RPA32C protein recruitment domain; winged helix domain (32C)
